Source: PubChem BioAssay AID360 (National Center for Advancing Translational Sciences (NCATS), 2006)
In all, about 48,000 compounds went through this assay and about 550 (1.1%) were called active. Roughly 4% stayed inconclusive and do not appear here. Rule as the data show it: active = potency below about 15 µM; inconclusive = mostly about 16 µM to 33 µM; inactive = weaker than that. Some of the results follow.

molecular target: Lysosomal acid glucosylceramidase (Homo sapiens) (UniProt P04062); assay: Glucocerebrosidase; conditions: purified enzyme, resorufin glucoside fluorescence (screen aimed at inhibitors), 20 min; series mostly up to 77 µM;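 also: the screen sought inhibitors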
Sequence of UniProt P04062 (P04062 whole entry, looked up): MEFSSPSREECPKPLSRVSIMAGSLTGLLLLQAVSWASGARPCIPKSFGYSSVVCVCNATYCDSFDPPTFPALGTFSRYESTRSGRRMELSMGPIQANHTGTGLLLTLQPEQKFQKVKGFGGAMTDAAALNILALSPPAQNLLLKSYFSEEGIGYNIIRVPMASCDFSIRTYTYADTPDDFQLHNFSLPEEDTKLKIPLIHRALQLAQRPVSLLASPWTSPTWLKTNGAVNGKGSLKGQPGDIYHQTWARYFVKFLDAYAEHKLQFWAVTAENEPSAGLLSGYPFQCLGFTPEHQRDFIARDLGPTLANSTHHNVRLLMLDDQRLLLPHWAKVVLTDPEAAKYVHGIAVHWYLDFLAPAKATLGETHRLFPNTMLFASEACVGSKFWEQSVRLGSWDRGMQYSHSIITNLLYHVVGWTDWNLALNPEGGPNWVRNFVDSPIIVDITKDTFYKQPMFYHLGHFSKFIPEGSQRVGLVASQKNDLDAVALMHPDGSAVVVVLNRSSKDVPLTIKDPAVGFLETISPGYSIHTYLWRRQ
Outline: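 Compounds titrated against 0.2 nM normal enzyme, 30 uM resorufin beta-D-glucopyranoside substrate, citrate/phosphate buffer with taurocholate and tween-20, pH 5.9. Reaction ran 20 min at room temperature; fluorescence (Ex 548/Em 600) gave AC50.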
Potency is read from the fitted curve at half-maximal effect.

Potency, inactive:
CCc1ccc(NC(=O)CSc2nnc(CNC(=O)c3c(F)cccc3Cl)o2)cc1 > 76.9 µM
COc1ccc(N(C(=O)Cn2nnc3ccccc32)C(C(=O)NCc2ccco2)c2ccc(C)o2)cc1 (centres undefined) > 76.9 µM
CN1C(=O)Cn2c1nc1ccccc12 > 76.9 µM
Cc1cc(-c2csc(NC(=O)c3cc4ccccc4o3)n2)c(C)n1C > 76.9 µM
O=C(Cn1nnc(-c2ccc(OCc3ccccc3F)cc2)n1)N1CCOCC1 > 76.9 µM
Cc1nonc1OCCn1nnnc1N > 76.9 µM
Cc1cccc(NC(=O)c2oc3ccc(S(=O)(=O)N4CCOCC4)cc3c2C)c1C > 76.9 µM
O=C(c1ccc(F)cc1)N1CCN(Cc2ccccc2Br)CC1 > 76.9 µM
CCCCOCC(O)CN1CCN(C(C)=O)CC1 (centres undefined) > 76.9 µM
CCC(c1nnnn1CCc1ccccc1)N1CCN(C(=O)c2ccco2)CC1 (centres undefined) > 76.9 µM
CNC(=O)CSc1nnc(-c2ccncc2)n1Cc1ccccc1 > 76.9 µM
CC(=O)N1CCCc2cc(S(=O)(=O)NC(C(=O)NCc3ccc(C)cc3)C(C)C)ccc21 (centres undefined) > 76.9 µM
O=P(O)(CCCP(=O)(O)CCc1ccccc1)CCc1ccccc1 > 76.9 µM
Cc1nnc(SCc2cccs2)[nH]c1=O > 76.9 µM
CCOc1cc(C)c(Cl)cc1S(=O)(=O)NCc1ccco1 > 76.9 µM
CCCCNS(=O)(=O)c1ccc2nc(SCC(=O)Nc3sccc3C#N)[nH]c2c1
O=C(O)C1CC(=O)N(Cc2ccccc2)C1 (centres undefined) > 76.9 µM
O=C(CCN1C(=O)C2C3C=CC(C3)C2C1=O)Nc1c(F)cc(F)cc1Br (centres undefined) > 76.9 µM
COCCNC(=O)CN(C(=O)CCC(=O)Nc1nccs1)c1ccccc1OC > 76.9 µM
CCN(C(=O)Cc1c(C(=O)O)[nH]c2ccccc12)c1cc(OC)ccc1OC > 76.9 µM
COc1cc(C(=O)N2CCN(C(=O)c3ccccc3)CC2)cc(OC)c1OC > 76.9 µM
O=C(O)c1cccnc1SC1CC(=O)N(Cc2ccccc2)C1=O (centres undefined) > 76.9 µM
CCC(C)NS(=O)(=O)c1ccc(OCC(=O)NCc2ccco2)cc1 (centres undefined) > 76.9 µM
CCOC(=O)c1[nH]c(C)c(C(=O)Nc2cc(OC)ccc2OC)c1C > 76.9 µM
CC(C)c1cc(C(=O)Nc2cccc(Cl)c2)no1 > 76.9 µM
Cc1cccc(C)c1NC(=O)C1(NC(=O)C2CCCN2C(=O)OC(C)(C)C)CCCCC1 (centres undefined) > 76.9 µM
O=C(Cn1cccc1C(=O)c1ccccc1)NCc1ccccn1 > 76.9 µM
CC(C)OC(=O)CC(=O)CSc1nc2c(cc1C#N)CCC2 > 76.9 µM
O=C(NCCN1CCCC1=O)Nc1ccccc1 > 76.9 µM
Cc1cc(NC(=O)c2ccc(Br)c(S(=O)(=O)N3CCCC3)c2)no1 > 76.9 µM
N#CCCC12CCCCC1=Nc1ccccc12 (centres undefined) > 76.9 µM
CCOC(=O)N1CCC(NC(=O)Cn2cccc2C(=O)c2ccccc2)CC1 > 76.9 µM
O=C(Cn1cnc2c(nnn2-c2cccc(Cl)c2)c1=O)N1CCCC1 > 76.9 µM
COc1ccc(-c2nnn(CCc3nn[nH]n3)n2)cc1OC > 76.9 µM
Cc1cc(Nc2nc3c(c(=O)n(C)c(=O)n3C)n2C)n(-c2ccc(Cl)cc2)n1 > 76.9 µM
O=C(c1ccc(Nc2cccc(C(F)(F)F)c2)nc1)N1CCCC1 > 76.9 µM
CC(=O)Nc1ccc(S(=O)(=O)n2nc(-c3ccc(C)cc3)nc2N)cc1 > 76.9 µM
COc1ccc(N2Cc3cccc(C(=O)N4CCOCC4)c3C2=O)cc1 > 76.9 µM
O=C(CCNS(=O)(=O)c1cccs1)NCc1cccs1 > 76.9 µM
CN(C)C(=O)c1nc(C#N)c(N(C)C)o1 > 76.9 µM
COCCn1cnc2c(c1=O)c1nc3ccccc3nc1n2/N=C/c1cccc(OC)c1OC
COC(=O)c1nnn(CC(=O)Nc2cccc(Cl)c2)c1C(=O)OC > 76.9 µM
CCCC(c1nnnn1CS(=O)(=O)c1ccc(C)cc1)N1CCN(c2ccc(F)cc2)CC1 (centres undefined) > 76.9 µM
COc1ccccc1N(CN1CCCC1=O)C(=O)c1c(F)cccc1Cl > 76.9 µM
CCOC(=O)c1snc2c(=O)[nH]cnc12 > 76.9 µM
CCN(CC)c1ccc(NC(=O)c2c(OC)cccc2OC)c(C)c1 > 76.9 µM
CCn1c(CSc2nc(C)cs2)nc2cc(S(=O)(=O)N(C)C)ccc21 > 76.9 µM
CCOC(=O)N1CCC(N(CCOC)C(=O)Nc2ccc(Cl)c(Cl)c2)CC1 > 76.9 µM
O=c1nc2c(-c3ccccc3F)n[nH]n2c2ccccc12 > 76.9 µM
NC(=O)c1ccsc1NC(=O)CSc1nc2ccccc2c(=O)n1CCCO > 76.9 µM
CCOC(=O)Cc1cnc(NC(=O)Cn2nnc(-c3ccc(OCC)cc3)n2)s1 > 76.9 µM
Cc1cc(C(=O)Nc2nnc(C(F)(F)F)s2)no1 > 76.9 µM
CCOC(=O)c1nn(-c2ccc3c(c2)OCO3)cc1O > 76.9 µM
Cc1ccc(SCCNC(=O)CN(c2ccc3c(c2)OCO3)S(C)(=O)=O)cc1 > 76.9 µM
O=C(CCCN=C1NS(=O)(=O)c2ccccc21)OCC(=O)N1CCc2ccccc21 > 76.9 µM
Cc1ccc(C)c(NC2=NS(=O)(=O)c3ccccc32)c1
c1ccc(OCCOc2ncnc3sccc23)cc1 > 76.9 µM
COC(=O)CC1Nc2ccccc2SC1=O (centres undefined) > 76.9 µM

Potency, active:
CC1CCc2cccc3c2N1c1cc(C#N)c(C#N)cc1O3 (centres undefined) 5 µM
